According to PubChem BioAssay AID1468 (National Center for Advancing Translational Sciences (NCATS), 2008):
About 1,100 (0.39%) of roughly 280,000 compounds were called active. This list was built around the results that the source calls inconclusive (neither active nor inactive); the mix of calls is not that of the screen. The call rests on the fitted dose curve; in most records, active means well fitted inhibition curve with a large enough effect; inconclusive means small, poorly fitted or top-dose-only effect, or effect the other way; inactive means flat fitted curve, though single readings scatter. Potencies of inconclusive entries are doubtful fits and often do not repeat.

molecular target: Microtubule-associated protein tau (Homo sapiens) (UniProt P10636); experiment: qHTS for Inhibitors of Tau Fibril Formation, Fluorescence Polarization; settings: K18 P301L tau heparin fibrillization, Alexa594 FP, 6 h; series mostly up to 57.7 µM; further: nearly all actives have a fitted effect of over 55% in size
Chain of UniProt P10636 (P10636 whole entry, looked up): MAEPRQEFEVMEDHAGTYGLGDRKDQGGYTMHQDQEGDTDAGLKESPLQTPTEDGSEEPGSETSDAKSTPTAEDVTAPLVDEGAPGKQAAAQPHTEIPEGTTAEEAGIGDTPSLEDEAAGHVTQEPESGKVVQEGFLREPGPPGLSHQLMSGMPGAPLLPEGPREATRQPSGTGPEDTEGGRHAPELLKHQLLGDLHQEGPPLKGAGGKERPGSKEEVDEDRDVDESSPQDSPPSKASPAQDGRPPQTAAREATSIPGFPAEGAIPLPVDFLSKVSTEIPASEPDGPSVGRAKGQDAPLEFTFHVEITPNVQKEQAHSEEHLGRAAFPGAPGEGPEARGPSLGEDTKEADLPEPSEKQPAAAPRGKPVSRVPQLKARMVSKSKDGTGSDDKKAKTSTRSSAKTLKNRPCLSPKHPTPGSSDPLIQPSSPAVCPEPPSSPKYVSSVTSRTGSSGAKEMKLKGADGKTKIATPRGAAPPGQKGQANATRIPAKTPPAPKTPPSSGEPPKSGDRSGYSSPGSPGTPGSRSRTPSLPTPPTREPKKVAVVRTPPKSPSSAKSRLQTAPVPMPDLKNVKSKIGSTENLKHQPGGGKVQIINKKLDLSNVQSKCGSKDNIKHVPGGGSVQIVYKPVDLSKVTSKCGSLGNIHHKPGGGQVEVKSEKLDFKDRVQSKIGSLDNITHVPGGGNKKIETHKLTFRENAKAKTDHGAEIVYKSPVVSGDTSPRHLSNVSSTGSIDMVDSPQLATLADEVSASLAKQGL
In short: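 Recombinant K18 P301L […], labeled with Alexa 594 at 0.24 uM over 15 uM unlabeled; heparin inducer 20 uM final; 37 C, 6 hr; FP endpoint.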
Potency means the concentration at half of the fitted maximal effect; tags describe the fitted curve by direction and shape.

Potency, inactive:
CCOc1ccccc1CNCc1c(C(=O)O)n(Cc2ccc(F)cc2)c2cc(C)ccc12
Nc1nc(N)c(N=Nc2ccc(Cl)cc2)c(=O)[nH]1
Cc1cc(C)c2c(-n3cccc3)c(C(=O)NCc3cccc(F)c3)sc2n1
O=C(/C=C/c1ccccc1)NC(=S)Nc1ccccc1C(=O)NC1CCCCC1
CCOCC(=O)Nc1cccc(-c2nc3cccnc3s2)c1C
CC(=O)Nc1c(F)cc(Br)cc1F
CC(=O)n1nc(-c2ccco2)nc1N
CCC1CCCCN1c1nc(-c2cccc(OC)c2O)nc2ccccc12 (stereo unspecified)
Cc1ccc(-c2c(C#N)c(N)nc3c2CCCCC3)cc1
Cc1ccc2nc(C)cc(C(=O)Nc3nccs3)c2c1
O=S(=O)(NC1=NCCCCC1)c1ccc(Cl)cc1
COc1cc(NC(=O)CSc2nccn2C)cc(OC)c1OC
CC(C)(C)c1ccc(Oc2ccc(NC(=O)CCC(=O)OCC(=O)c3ccccc3)cc2)cc1
O=C(CSc1nnc(-c2ccncc2)n1Cc1ccco1)OC1CCCCC1

Potency, active:
Cc1ccc(NC(=S)NCc2ccccc2)cc1S(=O)(=O)N1CCCCC1 20 µM
CC(=O)c1ccc(Nc2ccc3cc(S(=O)(=O)N4CCCC4)ccc3n2)cc1 22.4 µM
Fc1ccc(Nc2nc(SCc3ccccc3F)nc3ccccc23)cc1 7.94 µM

Potency, inconclusive:
Cc1cc(C(=O)NCc2cccc(Br)c2)c2c(C)nn(-c3ccccc3)c2n1 28.2 µM [inhibitor, single point]
O=C1C2Sc3[nH]c(=O)sc3C(c3ccccc3)C2C(=O)N1c1ccccc1 (stereo unspecified) 39.8 µM [inhibitor, single point]
COC(=O)c1ccc2nc(Nc3nc4c(F)cc(F)cc4s3)sc2c1 5.01 µM [inhibitor, full curve, poor fit]
O=C1N/C(=N\N=C\c2cccs2)SC1Cc1ccc(Cl)cc1 (stereo unspecified) 14.1 µM [inhibitor, partial curve, poor fit]
COc1ccc(C(=O)Nc2ccc(Cl)cc2C(=O)NCc2ccco2)cc1 3.55 µM [inhibitor, single point]
CSCCC1NC2(C(=O)Nc3c(C)cc(Cl)cc32)[C@@H]2C(=O)N(C3CCCC3)C(=O)[C@H]12 (stereo partly specified) 17.8 µM [inhibitor, single point]
COc1ccccc1NC(=O)Nc1nnc(-c2ccco2)s1 17.8 µM [inhibitor, single point]
Cc1ccc(S(=O)(=O)N2CCOCC2)cc1NC(=O)COC(=O)CNC(=O)c1ccc(Oc2ccccc2)cc1 8.91 µM [inhibitor, single point]
O=C(O)c1ccccc1C(=O)NCCc1ccc(Cl)cc1 39.8 µM [inhibitor, single point]
CS(=O)(=O)Nc1ccc(C2=NN(S(C)(=O)=O)C(c3ccccc3)C2)cc1 (stereo unspecified) 3.16 µM [inhibitor, single point]
COc1ccc(-c2cc3n(n2)CCc2nc4ccccc4n2-3)cc1 44.7 µM [inhibitor, single point]
Cc1ccc(C(=O)/C=C/C(=O)O)cc1 31.6 µM [inhibitor, single point]
O=C(NCc1ccccc1Cl)c1ccc(Cn2c(SCc3ccccc3)nc3cccnc32)cc1 3.55 µM [inhibitor, full curve, poor fit]
O=C(Cc1cccs1)N/N=C/c1ccc(OCc2ccccc2)cc1 39.8 µM [inhibitor, single point]
O=C(Nc1ccccc1)Nc1snnc1C(=O)Nc1cccc(O)c1 17.8 µM [inhibitor, single point]
Cc1ccc(Cl)cc1N1CCN(C(=O)CCCn2c(=O)[nH]c3ccc(Br)cc3c2=O)CC1 3.55 µM [inhibitor, full curve]
COc1ccccc1N1C(=O)C=C(Sc2nc(C)cc(C)n2)C1=O 39.8 µM [inhibitor, single point]
O=C(Cc1ccc(Cl)c(Cl)c1)Nc1cccc(S(=O)(=O)N2CCOCC2)c1 39.8 µM [inhibitor, partial curve, poor fit]
O=C(C1CCC1)N1CCc2cc(S(=O)(=O)NCc3ccccn3)ccc21 0.126 µM [inhibitor, full curve, poor fit]
O=C(CS(=O)c1ccc(C(F)(F)F)cc1[N+](=O)[O-])Oc1ccc(Cl)cc1 (stereo unspecified) 44.7 µM [inhibitor, single point]
Cc1ccc(NS(=O)(=O)c2cc(NC(=O)c3cc4c(s3)CCCC4)ccc2C)c(C)c1 0.708 µM [activator, single point]
CCOC(=O)c1cccc2c1-c1ccccc1/C2=N/O 28.2 µM [inhibitor, partial curve]
CCC(=O)C1=C(c2ccc(OC)c(OC)c2)N(C(=O)CC)n2c(CC)nnc2S1 0.112 µM [inhibitor, full curve, poor fit]
Cc1cc(C)n2nc(/C(C#N)=C/c3ccccn3)c(C#N)c2n1 39.8 µM [inhibitor, single point]
O=S(=O)(Nc1cc(F)ccc1F)c1ccc2[nH]c3c(c2c1)CCCCC3 39.8 µM [inhibitor, single point]
O=C(Cc1cccs1)Nc1ccccc1-c1nc2ccccc2[nH]1 10 µM [inhibitor, partial curve]
Nc1c(C(=O)N/N=C/c2cccnc2)oc2nc(-c3ccco3)cc(-c3ccco3)c12 31.6 µM [inhibitor, single point]
CCOC(=O)CSc1nc2sccc2c(=O)[nH]1 8.91 µM [inhibitor, single point]
Cc1cc([N+](=O)[O-])ccc1NC(c1nnc(-c2ccccc2)o1)c1ccccc1F (stereo unspecified) 35.5 µM [inhibitor, single point]
